Data reported in PubChem BioAssay AID1508649 (National Center for Advancing Translational Sciences (NCATS), 2021).
The whole screen tested about 43,000 compounds, of which about 830 (1.9%) were called active. The shares of active, inactive and inconclusive entries below differ from those in the screen. The calls were made as follows: active = clear falling dose curves in both reporters; inconclusive = both reporters move, but less clearly or upward; inactive = either reporter flat; the % is the NLuc reporter signal. No potency is given beside an inconclusive call; the fits are too rough.

experiment: Cell-based coincidence reporter assay to measure PMP22 gene transcription in S16 Pmp22-F2sN cells - Primary screen; conditions: S16 Pmp22-F2sN Schwann cells (luciferase reporters placed in the Pmp22 gene), FLuc/NLuc coincidence luminescence, 24 h; measured here: NLuc reporter readout, at 57.5 µM (top of the series)
Summary of the method: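 Rat S16 Pmp22-F2sN cells, 500-1,000/well in phenol red-free DMEM + 10% FBS, compound-treated 24 h (37C, 5% CO2). Luminescence: FLuc read, Stop&Glo added, NLuc read.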
Potency is read from the fitted curve at half-maximal effect; tags tell the direction and shape of the fitted curve.

Row | SMILES | Potency
1 | COc1ccc(-c2nc(C)c(CCNC(=O)C(=O)Nc3cccc(F)c3)s2)cc1OC | inconclusive [phenotype inactive, partial curve, poor fit]
2 | CCc1ccccc1NC(=O)c1cc(S(=O)(=O)N(CC)c2ccccc2)ccc1F | inconclusive [phenotype inactive, single point]
3 | COc1cccc(CNC(=O)CSc2ccc(-c3sc(-c4ccccc4)nc3C)nn2)c1 | inconclusive [phenotype inactive, single point]
4 | c1ccc(CNc2nc3ccccc3c3nc(-c4ccccc4)nn23)cc1 | inactive
5 | Cc1ccc(NC2=C(c3ccc(C(F)(F)F)cc3)C(=O)c3ccccc32)cc1F | inconclusive [phenotype inactive, partial curve, poor fit]
6 | COc1ccc(C2CC(=O)c3cc(-c4nc(-c5ccc(Cl)cc5)c(C)s4)c(=O)[nH]c3C2)cc1 (stereo unspecified) | inconclusive [phenotype inactive, partial curve, poor fit]
7 | Cc1ccc(-n2c(SCc3cccc(F)c3)nc3[nH]ncc3c2=O)cc1C | inconclusive [phenotype inactive, single point]
8 | COc1ccc(CCNC(=O)c2ccc3c(c2)N(Cc2c(F)cccc2Cl)C(=O)CS3)cc1OC | inconclusive [phenotype inactive, single point]
9 | O=c1c2oc3ccccc3c2n(Cc2ccc(Cl)cc2)c(=O)n1Cc1ccco1 | inconclusive [phenotype inactive, partial curve, poor fit]
10 | Cc1ccc(CN(Cc2ccco2)C(=O)COc2ccccc2C)cc1 | inconclusive [phenotype inactive, single point]
11 | COC(=O)c1ccccc1NC(=O)C1=CC(c2ccc(C)cc2)=NS(=O)(=O)N1C | inconclusive [phenotype inactive, single point]
12 | CC(C)(C)c1ccc(Cn2c(Cc3ccccc3)nc3ccccc32)cc1 | inconclusive [phenotype inactive, partial curve, poor fit]
13 | O=C(Cn1c(SCc2cccc(F)c2)nc2cccnc21)Nc1ccc(F)c(Cl)c1 | inactive
14 | Cc1cccc(-n2ncc(C(=O)N3CCN(C4CCCCC4)CC3)c2C2CCN(C(=O)OC(C)(C)C)CC2)c1 | inconclusive [phenotype inactive, partial curve, poor fit]
15 | COc1ccccc1C(=O)Oc1c(Sc2ccccc2)c(C)nn1C(C)(C)C | inactive
16 | CCOC(=O)c1ccc(N2C(=O)c3[nH]nc(-c4ccc(C)cc4)c3C2c2cccc(F)c2)cc1 (stereo unspecified) | inconclusive [phenotype inactive, single point]
17 | Cc1ccc(CSc2nc3ccc(NC(=O)COc4ccccc4)cc3s2)cc1 | active: 15 µM
18 | CCOc1ccc(NC(=O)CSC2=Nc3ccccc3C3=NC(CCC(=O)NCc4ccccc4)C(=O)N23)cc1 (stereo unspecified) | inconclusive [phenotype inactive, single point]
19 | Cc1cccc(-n2ncc(C(=O)N3CCN(c4ccc(Cl)cc4)CC3)c2C2CCN(C(=O)OC(C)(C)C)CC2)c1 | inconclusive [phenotype inactive, single point]

Row | SMILES | Potency
20 | CC1=C(c2ccc(Cl)cc2)S(=O)(=O)NC1=NCCCN1CCN(c2cc(C)ccc2C)CC1 | inconclusive [phenotype inactive, partial curve]
21 | O=C(Cn1c(=O)n(Cc2nc(-c3ccccc3)no2)c(=O)c2ccccc21)Nc1cccc(C(F)(F)F)c1 | inconclusive [phenotype inactive, single point]
22 | CCOC(=O)c1ccc(N2C(=O)c3[nH]nc(-c4ccccc4)c3C2c2ccc(CC)cc2)cc1 (stereo unspecified) | inconclusive [phenotype inactive, partial curve, poor fit]
23 | CCc1ccc(OC(C)C(=O)N2CCC(c3nc4ccccc4o3)CC2)cc1 (stereo unspecified) | inconclusive [phenotype inactive, single point]
24 | COc1ccc(-c2nc(SCC(=O)NC3CCCC3)c(-c3ccc(F)cc3)[nH]2)cc1 | inconclusive [phenotype inactive, partial curve]
25 | COc1ccc(-n2c(-c3ccc(C)cc3)cc3c2CC(C)(C)CC3=O)cc1Cl | inconclusive [phenotype inactive, single point]
26 | CCc1ccccc1NC(=O)CSc1nc(-c2cccc(Cl)c2)nc2c1Cc1c(CO)cnc(C)c1O2 | inconclusive [phenotype inactive, full curve, poor fit]
27 | CCOc1ccc(CN2CCc3nc(N4CCN(c5ccccc5OC)CC4)ncc3C2)cc1OC | active: 17 µM
28 | Cc1c(Cl)cccc1NC(=O)N1CCN(C(=O)c2nsc3ccccc23)CC1 | inactive
29 | O=C(CSc1nc2cc(C(=O)NC3CCCC3)ccc2c(=O)n1CC1CCCO1)c1cccc(Cl)c1 (stereo unspecified) | active: 14.1 µM
30 | COCCCNC(=O)CCc1c(C)nc2nc(-c3cc(OC)cc(OC)c3)nn2c1C | inactive
31 | O=C(NCCCc1nc2ccccc2n1Cc1ccc(Cl)cc1)C1CCCCC1 | inconclusive [phenotype inactive, single point]
32 | CC(NC(=O)c1ccc2c(c1)CCN2S(=O)(=O)c1ccccc1)c1ccccc1 (stereo unspecified) | inconclusive [phenotype inactive, partial curve, poor fit]
33 | Fc1ccc(-c2nn(-c3ccccc3Cl)c3c2cnc2ccccc23)cc1 | inconclusive [phenotype inactive, single point]
34 | CCCS(=O)(=O)N1CC(=O)N(c2cccc(Cl)c2C)C(C)(C(=O)NC2CCCC2)C1 (stereo unspecified) | inactive
35 | Cc1c(C(=O)Nc2cccc(Cl)c2)sc2nc3n(c(=O)c12)N=C(c1cccc(Br)c1)CS3 | inconclusive [phenotype inactive, partial curve, poor fit]
36 | Cc1ccccc1Nc1c(-c2cc(Br)ccc2F)nc2ccccn12 | inconclusive [phenotype inactive, single point]
37 | COc1ccc(N(CC(=O)NCCc2ccccc2)S(=O)(=O)c2ccccc2)c(OC)c1 | inconclusive [phenotype inactive, single point]
38 | Cc1ccc(NC(=O)N(Cc2cn(C)c3ccccc23)C2CCCCC2)cc1C | active: 11.3 µM

Row | SMILES | Potency
39 | COc1ccc(C(=O)CC2(O)C(=O)N(Cc3ccccc3Cl)c3ccccc32)cc1 (stereo unspecified) | inconclusive [phenotype inactive, single point]
40 | CCN1CCN(c2ccc(NS(=O)(=O)c3c(C)nc4sccn4c3=O)cc2Cl)CC1 | active: 8.91 µM
41 | O=S(=O)(c1ccccc1)c1nc(-c2ccc(Cl)cc2Cl)oc1N1CCCCCC1 | inconclusive [phenotype inactive, partial curve]
42 | CCCS(=O)(=O)c1ncc(Cl)c(C(=O)Nc2scc(-c3ccccc3)c2C(=O)OCC)n1 | active: 5.97 µM
43 | CCOc1ccc(C2CC(=O)c3c([nH]c(C(=O)OCc4ccccc4)c3C)C2)cc1 (stereo unspecified) | inconclusive [phenotype inactive, single point]
44 | CCOC(=O)c1c(NC(=O)c2ccc(S(=O)(=O)N(CCOC)CCOC)cc2)sc2c1CC(C)(C)NC2(C)C | inactive
45 | COc1ccc(-c2nc3sc(CCNC(=O)c4cc(Cl)ccc4OC)c(C)n3n2)cc1 | inconclusive [phenotype inactive, partial curve, poor fit]
46 | COc1ccc(CC(=O)Nc2c(C(=O)Nc3ccccc3F)oc3ccccc23)cc1 | inconclusive [phenotype inactive, partial curve]
47 | Cc1c(Cl)cccc1Nc1sc(C(=O)c2ccccc2)c(N)c1S(=O)(=O)c1ccccc1 | inactive
48 | O=C(CSc1nccn1-c1ccc(Cl)cc1)Nc1nc2ccccc2s1 | inconclusive [phenotype inactive, single point]
49 | CCOC(=O)c1ccc(N2C(=O)c3n[nH]c(-c4cccs4)c3C2c2ccc(C)cc2)cc1 (stereo unspecified) | inconclusive [phenotype inactive, partial curve, poor fit]
50 | O=C(c1cc(-c2ccc(Br)cc2)n[nH]1)N1CCN(S(=O)(=O)c2ccc(Br)cc2)CC1 | inconclusive [phenotype inactive, single point]
51 | Cc1cc(C)c2sc(N(Cc3cccnc3)C(=O)CCS(=O)(=O)c3ccccc3)nc2c1 | inconclusive [phenotype inactive, partial curve]
52 | CNC(=O)c1ccc2c(c1)N=C(C)c1cc(C)ccc1S2 | inactive
53 | CC(C)OCCCNC(=O)CCCn1c(SCC(=O)c2ccc(F)cc2)nc2c(sc3ccccc32)c1=O | inactive
54 | CCOc1ccc(Nc2nc3ccccc3n3c(CC)nnc23)cc1 | inconclusive [phenotype inactive, single point]
55 | Cc1c(C)n(Cc2ccc(Cl)cc2)c2ccc(C(=O)NCCc3ccc(S(N)(=O)=O)cc3)cc12 | inconclusive [phenotype inactive, single point]
56 | O=C1CC(c2nc3ccccc3n2CCCOc2ccccc2)CN1c1ccc(F)cc1 (stereo unspecified) | inconclusive [phenotype inactive, single point]
